Assay results from the supplement of paper PMC10126150.
Values marked as one replicate rest on one cluster of the flow cell; about a third of the high ones do not repeat.

Tested on: ATP
Experiment: switch fluorescence ratio, 500 uM ATP over buffer (Cy3 cluster intensity, sum of 5 cycles each) (fold (ratio)); higher = stronger signal-on switching upon ATP binding; sequences stand for … in TCGTCGGCAGCGTCAGATGTGTATAAGAGACAGTTTTTTTTTTTTTTTTTTTTTTTTT…TC
Details: aptamer strand: ATP DNA aptamer (quencher-CACCTGGGGGAGTATTGCGGAGGAAGG + anchor), 100 nM annealed; ATP concentration: 500 uM; one replicate
Outline: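 Values give the fluorescence ratio for each switch-domain sequence, averaged from per-cluster ratios of summed target-cycle to summed buffer-cycle Cy3 intensity. The Cy3-labelled switching-strand clusters sat on a modified Illumina MiSeq flow-cell, were annealed to 100 nM quencher-labelled ATP aptamer, and were imaged in selection buffer, then after 15 min with 500 uM ATP at 22 °C. Five cycles ran with NaOH stripping and re-annealing between them, and clusters outside 100-1000 RFU were excluded.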
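Further: ATP exposure 15 min at 22 °C before imaging.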

Sequence | switch fluorescence ratio
CTCATTTTGG | 0.972
TCTACTAGGC | 1
CTTCGGACAC | 2.84
TAATCACAGA | 1.01
TCGCTCAGGA | 1.03
TCTCATGGC | 0.976
ACTGGCAGAA | 1.02
TGGCCTTA | 0.983
AGTTTCCGC | 1.13
GCTTTTATGA | 0.992
ATTGGGTCAA | 1.04
CTGCAACGTA | 1.11
ACGAGCATCT | 1.23
CCATAGGAAA | 0.949
CGGCAGAATG | 1.03
TCTCGTTTTA | 1.02
TAGACAGGGT | 1.02
AACCTTCTCT | 1.57
GTGTATGCCT | 0.956
AAGTTGTCCC | 1.01
TAGGTGTACG | 0.976
AAATTTAGT | 0.977
GGGCAGAAAA | 0.998
CAGTATAAGA | 0.964

Sequence | switch fluorescence ratio
TCCGAGTACG | 1.3
AACGGCCGGC | 1.12
CTTTGCCTTA | 0.99
ATGTTAATTC | 1
CTGCTCTAGG | 1.08
TGGTCAGCGC | 0.99
TTGAATTGAT | 1
ATCTGGGAG | 0.965
CATATGATAC | 1.04
GTGGACTAGG | 1.03
AGCTTCT | 1.01
CGGACATAAT | 1.05
CTCACGAAGA | 1.05
TCGGGATCA | 0.983
GGGCATGTA | 1.02
TCGTGGGATG | 1.12
ACCTGGGAC | 1.03
GCCGGTCAAT | 1.01
CAGCAAGGCT | 1.65
AAGTACTACC | 1.27
CGTAGGGACT | 0.994
CAGGGCGCT | 0.955
GAGCGCATTC | 2.14
AAAGGGCCTG | 0.966

Sequence | switch fluorescence ratio
ATCGGTAAGG | 1.01
GGGGTCCCTA | 0.988
CGTGGTCGGT | 0.999
TAACGCGTTT | 1.02
CTTAGAAATT | 0.998
TTCCGGTGTG | 0.972
CGCTGGTATT | 1.02
AAAGGCTGAG | 0.989
TTAAGGCTA | 1.01
AAGGCCGCAC | 1.34
GACGATGTGT | 0.992
GTATCTCCGT | 1.02
GCTCTTCTGC | 1.02
GGCATCTTCA | 1
TTGGTCTGG | 0.989
TACAGTT | 0.989
AAGTGATTAT | 0.976
TGGTGCCCGA | 0.998
TAGAACATAG | 1.03
CCTTCTGTAA | 3.61
TAGTATTCAG | 0.994
CCTTGAATTG | 1.05
